Assay results from ChEMBL document CHEMBL1201862, “PubChem BioAssay data set” (2004).

Test system: NCI-H322M
Assay: NCI tumour cell line growth inhibition, 48 h

Structure (SMILES)	GI50
CN(C)CCOC1(Cc2ccc(F)cc2)CCC(C(C)(C)C)CC1 (centres undefined)	inactive: 8.79 µM and inactive: 4.41 µM
Cc1cc(NS(=O)(=O)c2ccc(NC(NC(=O)C(C(F)(F)F)C(F)(F)F)(C(F)(F)F)C(F)(F)F)cc2)no1	inactive: > 100 µM
COc1cc2ccnc3c2c(c1OC)-c1coc(SC)c1-3	inactive: > 100 µM
N=C(N)N/N=C/c1nc2sccn2c1[N+](=O)[O-]	inactive: 22.6 µM
COc1cc(Nc2nc3cc(C)ccc3nc2-c2ccccc2)cc(OC)c1OC	inactive: 58.9 µM
COC(=O)c1c([N+](=O)[O-])ncn1[C@H]1OC[C@@H](OC(C)=O)[C@@H](OC(C)=O)[C@@H]1OC(C)=O	inactive: > 100 µM
Cc1cc(Cl)ccc1/N=C1/NC(=O)C(CC(=O)Nc2cccc(C)c2C)S1 (centres undefined)	inactive: 31.8 µM
CCOC(=O)n1c2ccccc2c2c(O)c(OC)c3c(c21)C(=O)NC3=O	inactive: 96.8 µM
Cc1cc(C)c(S(=O)(=O)ONC(=O)OC(C)(C)C)c(C)c1	inactive: > 100 µM
N#CC1=C(c2ccccc2)NN(Cc2ccccc2)C(c2ccc(Cl)cc2)CC1=O (centres undefined)	inactive: 26.5 µM
Cc1cc(N(CCC#N)CCC#N)ccc1C(/N=N\c1ccc([N+](=O)[O-])cc1)=N\NC(=O)c1cc(Cl)ccc1O	inactive: 26.2 µM
Cc1nc(Nc2ccc(Cl)cc2Cl)sc1C(=O)Nc1ccccc1	inactive: > 100 µM
CC(=O)O[C@H]1C(=O)[C@@]2(C)[C@H]([C@H](OC(=O)c3ccccc3)[C@]3(O)C[C@H](OC(=O)[C@H](O)[C@@H](NC(=O)c4cccc(N=[N+]=[N-])c4)c4ccccc4)C(C)=C1C3(C)C)[C@]1(OC(C)=O)CO[C@@H]1C[C@@H]2O	active: 0.00897 µM
OCC1C(O)C(O)[C@@H]2SCCN12 (some centres undefined)	inactive: > 100 µM
O=C1c2ccccc2NC(c2cc(Cl)cc(Cl)c2O)N1CCc1ccccn1 (centres undefined)	inactive: 61 µM
O=C(CC1Sc2ccccc2NC1=O)Nc1cc(Cl)ccc1Cl (centres undefined)	inactive: > 100 µM
CC1=CCS(=O)(=O)C1C(O)C1=C(C)CCCC1(C)C (centres undefined)	inactive: > 100 µM
CC1=NNC(=O)C1C1CC(c2c[nH]c3ccccc23)=NN(C(N)=O)C1=O (centres undefined)	inactive: > 100 µM
CCCCCCCCCCCCCCCCOCC(Cl)COP(=O)(O)OP(=O)(O)OCC1OC(n2cc(C)c(=O)[nH]c2=O)CC1O (centres undefined)	inactive: 85.9 µM
COc1c2cc([N+](=O)[O-])cc1CNC(=O)CN1CCOCCOCCN(CCOCCOCC1)CC(=O)NC2	inactive: > 100 µM
O=C(O)Cn1ncn(NC(=O)Cc2ccccc2)c1=S	inactive: > 10 µM

Structure (SMILES)	GI50
O=C(OCc1ccccc1)N1CCNCCNCCN(C(=O)OCc2ccccc2)CCNCC1	inactive: 12.6 µM
Cc1ccnc2c1c(=O)c1ccccc1n2C	inactive: 46.2 µM
O=[N+]([O-])c1ccc(/C=C/c2csnn2)cc1	inactive: > 100 µM
COC(=O)C1CCC(=O)N1CN(C(C)=O)c1cc(OC)ccc1OC (centres undefined)	inactive: > 100 µM
O=C(NC(=O)c1ccccc1)OC(c1ccccc1)C1CO1 (centres undefined)	inactive: > 100 µM
CC1CN(CCO)CC(C)O1 (centres undefined)	inactive: > 100 µM
Oc1ccc(C(=C(Br)c2ccccc2)c2ccc(O)cc2)cc1	inactive: 7.73 µM
CC(C)(C)OC(=O)NC1CC2(C=C(Br)C(=O)C(Br)=C2)OC1=O (centres undefined)	inactive: 28.2 µM
O=C(NC(=S)Nc1ccc(Br)cc1)c1ccc2c(c1)Sc1ccccc1S2	inactive: 20.8 µM
O=C(/C=C/c1ccc(O)c(O)c1O)OCCc1ccccc1	inactive: 26.5 µM
Cc1ccccc1C1=[N+]([O-])c2ccc(Cl)cc2C1=O	inactive: 20.9 µM
COC(=O)C(CC(C)C)NC(=O)C(C)NC(=O)C(Cc1ccc(OCc2ccccc2)cc1)NC(=O)C(COCc1ccccc1)NC(=O)OC(C)(C)C (centres undefined) (Boc-S(Bn)Y(Bn)AL-OMe; configuration not given here)	inactive: > 100 µM
NC1(CCNC(=O)c2ccccc2)CCN(C(=O)c2ccccc2)CC1	inactive: > 100 µM
CCn1c(-c2ccc(/N=N/Nc3ccc(-c4n[nH]c(=S)n4CC)cc3)cc2)n[nH]c1=S	inactive: 2.58 µM
Cc1ccc(S(=O)(=O)Nn2c(O)c(C#N)c(-c3ccc(Cl)cc3)c(C#N)c2=O)cc1	inactive: > 100 µM
COC(=O)C(=O)C(/C(=N/N)C(=O)Nc1ccccc1C(N)=O)c1nc2ccc([N+](=O)[O-])cc2nc1O (centres undefined)	inactive: > 100 µM
CC12CC(Sc3ccccc3N1)c1ccccc1O2 (centres undefined)	inactive: 17.7 µM
C[N+]1(CCN[N+]2(C)CCCCC2)CCc2ccccc2C1 (centres undefined)	inactive: > 100 µM
CNCCC=C1c2ccccc2CCc2ccccc21 [NORTRIPTYLINE HYDROCHLORIDE]	inactive: 14.7 µM
Cc1cccc(C)c1NC(=O)CCC(=O)NNc1nnc(C)n1N	inactive: > 100 µM
COc1ccc(-c2cc(-c3cc(C)cc(Br)c3O)no2)cc1	inactive: 9.89 µM

Structure (SMILES)	GI50
CC[C@@]1(OC(=O)CCC(=O)O)C(=O)OCc2c1cc1n(c2=O)Cc2cc3ccccc3nc2-1	active: 0.532 µM
c1ccc(P(=Nc2ccccc2N=P(c2ccccc2)(c2ccccc2)c2ccccc2)(c2ccccc2)c2ccccc2)cc1	inactive: > 100 µM
O=c1ccs[nH]1	inactive: 45.2 µM
CCCC(=O)NC1=C(NCC)C(=O)c2ccccc2C1=O	inactive: > 100 µM
CC(=O)Oc1ccccc1/C=C/C(=O)/C=C/c1ccccc1OC(C)=O	inactive: 2.3 µM
Nc1c(S(=O)(=O)O)cc(S(=O)(=O)O)c2ccc(/N=N/c3ccc(/C=C/c4ccc(/N=N/c5ccc6c(S(=O)(=O)O)cc(S(=O)(=O)O)c(N)c6c5O)cc4S(=O)(=O)O)c(S(=O)(=O)O)c3)c(O)c12	inactive: > 100 µM
Cc1ccc(/C=C/C(=N/NC(=O)N/N=C(/C=C/c2ccc(C)cc2)C(C)C)C(C)C)cc1	inactive: > 10 µM
COc1cc2cc(C(=O)N3CC(CCl)c4c3cc(NC(=O)OCc3ccc([N+](=O)[O-])cc3)c3ccccc43)[nH]c2c(OC)c1OC (centres undefined)	inactive: > 45.6 µM
O=C(c1c(F)c(F)c(F)c(F)c1F)c1c(F)c(F)c(F)c(F)c1F	inactive: 3.97 µM
CSc1nc(SC)c2c(CO)c(Br)n(Cc3ccccc3)c2n1	inactive: 20.1 µM
Cn1c(=O)c2c(nc3sc4ccccc4c(=O)n32)n(C)c1=O	inactive: > 100 µM
COC(=O)C1CCC(=S)N1C(=O)OCc1ccccc1 (centres undefined)	inactive: 7.89 µM
O=C1C2C3CC(C4C5C=CC(C5)C34)C2C2C3CC(C12)C1C2C=CC(C2)C31 (centres undefined)	inactive: > 100 µM
COc1ccc(-c2cc(O)c3c(C)cc(C)nc3n2)cc1	inactive: 31.3 µM
Clc1ccccc1-c1nc2cc(C34CC5CC(CC(C5)C3)C4)ccc2[nH]1	inactive: 24.9 µM
COc1ccc2c(c1)[n+]([O-])c(C#N)c(N1CCN(c3ccc([N+](=O)[O-])cc3)CC1)[n+]2[O-]	inactive: 25.8 µM
CCC1([N+](=O)[O-])CN(N=O)C1	inactive: > 100 µM
O=C1C(Br)=CC2(C=C1Br)CCNC1=C2C2=NCCc3c[nH]c(c32)C1=O	active: 1.11 µM
CCCCCCc1cc2cc(-c3cn4ccccc4n3)c(=O)oc2cc1O	inactive: 36 µM
COc1ccc(-c2cc(O)c3ccc(C)nc3n2)cc1	inactive: > 100 µM
CC(O)C(NC(=O)C(Cc1ccccc1)NC(=O)C(NC(=O)C(CCCCN)NC(=O)C(Cc1c[nH]c2ccccc12)NC(=O)C(Cc1ccc(O)cc1)NC(=O)C(Cc1ccc(Cl)cc1)NC(=O)C(N)Cc1ccccc1)C(C)O)C(N)=O (centres undefined) (H-F[Phe(4-Cl)]YWKTFT-NH2; configuration not given here)	inactive: 19.3 µM

Structure (SMILES)	GI50
O=C1CCCCC12CCC/C2=N\O (centres undefined)	inactive: > 100 µM
CC(=O)O[C@H]1C(=O)[C@@]2(C)[C@H]([C@H](OC(=O)c3ccccc3)[C@]3(O)C[C@H](OC(=O)[C@H](O)[C@@H](NC(=O)c4ccco4)c4ccccc4)C(C)=C1C3(C)C)[C@]1(OC(C)=O)CO[C@@H]1C[C@@H]2O	active: < 0.00125 µM
CN(C)/N=C/c1cn(C)c(=O)n(C)c1=O	inactive: > 100 µM
C=C1C(C)C2C(Cc3ccccc3)NC(=O)C23C(OC(C)=O)/C=C/C(C)(O)CC(C)C/C=C/C3C1O (centres undefined)	inactive: 53.5 µM
CCOC(=O)CCC(NC(=O)c1ccc(NCc2ccc3nc(OC)c(OC)nc3c2)c2ccccc12)C(=O)OCC (centres undefined)	inactive: > 100 µM
CNN1C(=O)c2c(N)c(C#N)c(-c3ccccc3)c(-c3ccccc3)c2C1=O	inactive: 63.5 µM
NCCOc1cccc(C2(N3CCCCC3)CCCCC2)c1	inactive: 34.6 µM
O=C1C=CC2(O[C@H](c3ccccc3)[C@@H](c3ccccc3)O2)C(SC(=O)c2ccccc2)C1 (some centres undefined)	inactive: 12 µM
COc1cc2c(cc1C)NC(=O)/C2=C\c1cccnc1	inactive: 16.3 µM
CC(C)(C)OC(=O)N(O)[C@@H]1CC[C@H](n2cnc3c(N)ncnc32)C1	inactive: > 100 µM
CCOC(=O)CSc1nc(N)c2c(-c3ccccc3)c3c(nc2n1)CCCC3	inactive: > 100 µM
O=C(O)Cn1ccc(=O)c2cc([N+](=O)[O-])ccc21	inactive: > 100 µM
COc1ccc(O)c(/C(C)=N/NC(=S)N(C)C)c1	inactive: 22.1 µM
CC(=O)Nc1ccc(-c2nnc(SCC(=O)Nc3ccc(Cl)cc3Cl)o2)cc1	inactive: 54.6 µM
CCOC(=O)C1=C(OC(OCC)C(CC)[Se]c2ccccc2)CCC1 (centres undefined)	inactive: > 100 µM
Cc1ccc(C(=O)Nc2ccc(S(=O)(=O)O)c3cc(S(=O)(=O)O)cc(S(=O)(=O)O)c23)cc1NC(=O)c1cccc(NC(=O)Nc2cccc(C(=O)Nc3cc(C(=O)Nc4ccc(S(=O)(=O)O)c5cc(S(=O)(=O)O)cc(S(=O)(=O)O)c45)ccc3C)c2)c1 [SURAMIN]	inactive: 61.4 µM
ON(Cc1ccccc1)C(=S)c1ccccc1	inactive: 3.32 µM
N#CC(c1ccccc1)N(CCOCCOCCN(C(=O)c1ccccc1)C(C#N)c1ccccc1)C(=O)c1ccccc1 (centres undefined)	inactive: > 100 µM
CCOC(=O)CC[C@H](NC(=O)c1ccc(CNc2nc3cc(C(F)(F)F)ccc3nc2C(=O)OCC)cc1)C(=O)OCC	inactive: 66.5 µM
CSc1nc(N)c(NC2OC(CO)C(O)C2O)c(=O)[nH]1 (centres undefined)	inactive: > 100 µM
CN(C)CCCNC(=O)c1cc(NC(=O)c2cc(NS(=O)(=O)c3ccc4c(c3)C(=O)c3ccccc3C4=O)cn2C)cn1C	inactive: > 100 µM

“And” between values parts separate entries of the source, which are not always exact repeats. Equal entries are not always repeated. Structures can show the parent of a compound that is named as a salt.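 1) Cells in 96-well plates. 2) Compound, 48 h, 5 concentrations. 3) Linear interpolation between surrounding doses. 4) Unreached endpoint = highest concentration. GI50: concentration for 50% inhibition of growth.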 The source made the active and inactive calls. No stated cut-off is given here; in the data, active = GI50 up to about 1.1 µM and inactive = higher. Square brackets hold non-standard residues; d marks the D form. Peptide text beside a SMILES is read from it. * marks the point of attachment. Phe(4-Cl) = N[CH](Cc1ccc(Cl)cc1)C(=O)O; Boc = CC(C)(C)OC(=O)*; Bn = c1ccc(C*)cc1
